Experimental data reported in PubChem BioAssay AID485364 (National Center for Advancing Translational Sciences (NCATS), 2010).
In all, about 360,000 compounds went through this assay and about 11,000 (3.1%) were called active. This list was built around the results that the source calls inconclusive (neither active nor inactive); the mix of calls is not that of the screen. Calls follow the shape of the dose curve; as a rule, active = well fitted inhibition curve with a large enough effect; inconclusive = small, poorly fitted or top-dose-only effect; inactive = no such curve, though single readings can be large or run the other way. No potency is given beside an inconclusive call; the fits are too rough.

Biological target: Schistosoma mansoni thioredoxin glutathione reductase (TGR) (UniProt Q962Y6)
Experiment: qHTS Assay for the Inhibitors of Schistosoma Mansoni Peroxiredoxins; also: nearly all actives have a fitted effect of over 60% in size
Settings: purified TGR, DTNB reduction, TNB absorbance 405 nm; activity change, negative = inhibition: at 114 µM (top of the series) unless noted
Method in brief: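 TGR 20 nM + NADPH 100 uM (dispensed conc.), cpd preinc 15 min RT; start with NADPH (500 uM addition) then DTNB (15 mM addition). Kinetic TNB absorbance, 405 nm filter. Four-parameter Hill fit across titration.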
% is scaled to controls: 0 for no effect and ±100 for the full control effect; potency is read from the fitted curve at half-maximal effect; tags tell the direction and shape of the fitted curve.

Row | SMILES | Potency | activity change, negative = inhibition
1 | N#Cc1c(/N=C/c2ccco2)sc2c1CCC2 | inconclusive [inhibitor, single point] | –
2 | Cc1ccc(CNc2cnn(C34CC5CC(CC(C5)C3)C4)c(=O)c2Cl)cc1 | inconclusive [inhibitor, partial curve] | –
3 | O=S(=O)(NC1CC1)c1ccc(S(=O)(=O)N2CCc3ccccc32)cc1 | – | inactive: 5.43%
4 | COC(=O)c1cccc(N/C=C(\[N+](=O)[O-])S(=O)(=O)c2ccccc2)c1 | inconclusive [inhibitor, partial curve] | –
5 | COc1ccc(S(=O)(=O)N(Cc2ccco2)Cc2cc3ccccc3[nH]c2=O)cc1 | inconclusive [inhibitor, partial curve] | –
6 | O=C(Nc1ccc(F)cc1)C1CC(=O)N(Cc2ccco2)C1 (stereo not drawn) | inconclusive [inhibitor, partial curve] | –
7 | Cc1cccc(NC(=O)c2nc[nH]c2C(=O)N(C)Cc2ccccc2)c1 | inconclusive [inhibitor, partial curve] | –
8 | COc1ccccc1OCc1ccc(C(=O)NC(C)(C)C)o1 | inconclusive [inhibitor, partial curve] | –
9 | C/C=C/Cn1c(SCc2ccc(C)cc2)nc2c1c(=O)[nH]c(=O)n2C | inconclusive [inhibitor, single point] | –
10 | CCOC(=O)N1CCc2c(sc(NCc3sccc3C)c2C(=O)Nc2ccc(OC)cc2OC)C1 | inconclusive [inhibitor, partial curve] | –
11 | CCCC[C@]12Cc3cc(C#N)ccc3C(O1)c1c(c3ccccc3oc1=O)O2 | inconclusive [inhibitor, full curve, poor fit] | –
12 | CC(=O)NC(c1ccco1)c1cc(Cl)c2ccc(Cl)nc2c1O (stereo not drawn) | inconclusive [inhibitor, full curve, poor fit] | –
13 | COc1cccc(N2CCN(CC(=O)Nc3ccccc3C(=O)NCCc3ccccc3)CC2)c1 | – | inactive: -15.4%
14 | O=C(NCc1ccc(Cl)cc1)Nc1ccc(F)cc1 | – | inactive: 1.65%
15 | CC(C)c1nnc(SCC(=O)NCc2ccco2)n1C | inconclusive [inhibitor, single point] | –
16 | CCn1nc(NC(=O)c2cccnc2)c2cc3ccccc3nc21 | inconclusive [inhibitor, full curve, poor fit] | –
17 | CCC1CCCCN1Cc1ccc(CNS(=O)(=O)c2ccc3c(c2)oc(=O)n3C)o1 (stereo not drawn) | active: 79.4 µM | –
18 | Fc1cc2nc(-c3ccncc3)[nH]c2cc1F | – | inactive: -16.2%
19 | Cc1c(Cl)cccc1NC(=S)Nc1ccc2[nH]c(=O)[nH]c2c1 | inconclusive [inhibitor, partial curve] | –
20 | CCCCN(C)CCNC(=O)c1c2c(nc3ccccc13)C(=O)N(C1CCCCC1)C2 | – | inactive: 0.514%
21 | Cc1cc2nc(-c3ccc(SCC(=O)N4CCN(C(=O)c5ccco5)CC4)nc3)[nH]c2cc1C | active: 10 µM | –
22 | N#CC1=C(N)C2=CCCC[C@H]2[C@H](c2cccc(F)c2)C1(C#N)C#N | inconclusive [inhibitor, partial curve] | –
23 | COc1ccc(NC(=O)/C(Cl)=C(/Cl)S(=O)(=O)Cc2ccccc2)cn1 | active: 10 µM | –

Row | SMILES | Potency | activity change, negative = inhibition
24 | COCCCN1C(=O)/C(=C/c2ccc(CNS(=O)(=O)c3ccccc3)o2)C(C(=O)OC)=C1C | active: 11.2 µM | –
25 | Cc1cccc(N2CCN(CCCNc3ncnc4onc(-c5ccc(Cl)cc5)c34)CC2C)c1 (stereo not drawn) | – | inactive: 7.14%
26 | O=C(Nc1ccc(S(=O)(=O)N2CCN(Cc3ccccc3)CC2)cc1)c1cnccn1 | inconclusive [inhibitor, partial curve] | –
27 | Cc1nc2c(-c3ccccc3)c(C)nn2c(C)c1CCC(=O)N1CCN(c2ccc(F)cc2)CC1 | – | inactive: 0.871%
28 | CCCCc1ccc(/C=C2\C(=O)c3ccccc3C(O)=C2C(=O)OCC)cc1 | active: 11.2 µM | –
29 | Cc1ccc(NC(=S)Nc2ccc(F)cc2)cc1 | inconclusive [inhibitor, single point] | –
30 | CN(C)/C=C(/C(=O)c1ccccc1)n1cncn1 | – | inactive: -8.18%
31 | CC(C)Oc1ccc(C(=O)NCc2ccco2)cc1 | inconclusive [inhibitor, partial curve] | –
32 | CC(C)c1onc(C(=O)NCc2ccccn2)c1[N+](=O)[O-] | inconclusive [inhibitor, partial curve] | –
33 | COc1cccc(CNC(=O)C(=O)NCC(c2ccco2)S(=O)(=O)c2cccs2)c1 (stereo not drawn) | active: 3.98 µM | –
34 | Cc1cc(C)c(C)c(S(=O)(=O)Nc2ccc3cn[nH]c3c2)c1C | inconclusive [inhibitor, single point] | –
35 | Cc1ccc(NC(=O)C2CCCN(c3nnc(-n4c(C)ccc4C)s3)C2)c(C)c1 (stereo not drawn) | inconclusive [inhibitor, partial curve] | –
36 | Nc1cc2nc3ccccc3oc-2cc1=O | active: 15.8 µM | –
37 | Cc1ccc(-n2c(Cn3nc(C(F)(F)F)cc3C)n[nH]c2=S)cc1 | – | inactive: 9.07%
38 | Cc1ccc(NC(=O)N2CCCC(c3ccccc3)C2)cc1 (stereo not drawn) | – | inactive: -1.34%
39 | C1=C(c2ccc(-c3ccccc3)cc2)Nc2ncnn2C1c1ccco1 (stereo not drawn) | active: 22.4 µM | –
40 | Cc1cc(Cl)ccc1NC(=O)CSc1n[nH]c(N)n1 | – | inactive: 1.84%
41 | Cn1c(=O)c2c(nc(N3CCCCC3)n2CC(O)COc2ccccc2)n(C)c1=O (stereo not drawn) | inconclusive [inhibitor, partial curve] | –
42 | CC1(C)CNC(=O)CC(C)(C)N1 | inconclusive [inhibitor, single point] | –
43 | O=[N+]([O-])c1ccccc1NCc1c(O)ccc2ccccc12 | active: 1.78 µM | –
44 | Cc1ncc(C[n+]2csc(CCOC(=O)CC3C4CC5CC(C4)CC3C5)c2C)c(N)n1 (stereo not drawn) | inconclusive [inhibitor, partial curve] | –
45 | Cc1cc(C)nc(SCc2nnc(SCC(=O)Nc3ccccc3C)n2Cc2ccco2)n1 | inconclusive [inhibitor, partial curve] | –
46 | O=C(O)c1cccc(-n2sc3ccccc3c2=O)c1 | inconclusive [inhibitor, partial curve] | –

Row | SMILES | Potency | activity change, negative = inhibition
47 | O=c1c(-c2ccco2)[n+]([O-])c2ccccc2n1OCc1ccccc1F | inconclusive [inhibitor, partial curve] | –
48 | COc1ccc(NS(=O)(=O)c2ccc(NC(=S)NCC3CCCO3)cc2)cc1 (stereo not drawn) | inconclusive [inhibitor, full curve, poor fit] | –
49 | CCCCC[C@]12Cc3cc(OC)c(OC)cc3C(O1)c1c(cc(C)n(-c3ccccc3)c1=O)O2 | inconclusive [inhibitor, partial curve] | –
50 | O=C1NC(=O)N(Cc2cccs2)C(=O)/C1=C/c1ccc(N2CCOCC2)cc1 | inconclusive [inhibitor, full curve, poor fit] | –
51 | CC1CCN(C(=O)CCc2nnc3ccc(NCc4ccco4)nn23)CC1 | inconclusive [inhibitor, partial curve] | –
52 | COC(=O)c1ccc(NC(=S)NC2CCCCC2C)cc1 (stereo not drawn) | – | inactive: -7.89%
53 | Cc1ccc(S(=O)(=O)NC2CCOC(C)(C)C2)cc1 (stereo not drawn) | inconclusive [inhibitor, single point] | –
54 | CCCOc1cccc(C2C(C(=O)c3ccco3)=C(O)C(=O)N2CCN(CC)CC)c1 (stereo not drawn) | inconclusive [inhibitor, single point] | –
55 | CCOc1ccc(C(=O)CCNC(Cc2cnc[nH]2)C(=O)O)cc1 (stereo not drawn) | inconclusive [inhibitor, partial curve] | –
56 | COc1ccc([C@]23Cc4cc(C#N)ccc4C(O2)c2c(c4ccc(OC)cc4oc2=O)O3)cc1 | inconclusive [inhibitor, partial curve] | –
57 | CC(=O)c1ccc(S(=O)(=O)N2CCN(C(=O)c3ccc(N)c([N+](=O)[O-])c3)CC2)cc1 | – | inactive: 8.8%
58 | CC1CCC/C(=C\Nc2ccc(C(=O)O)cc2)C1=O (stereo not drawn) | inconclusive [inhibitor, partial curve] | –
59 | N=C1/C(=C\c2ccc(-c3cccc(Cl)c3)o2)C(=O)N=C2SC=C(c3ccccc3)N12 | inconclusive [inhibitor, partial curve] | –
60 | O=c1cccc2n1CC1CC2CN(Cc2c(Cl)cccc2Cl)C1 (stereo not drawn) | inconclusive [inhibitor, single point] | –
61 | Cc1cc(Cl)n2nc(C)c(-c3ccc(Cl)cc3)c2n1 | inconclusive [inhibitor, partial curve] | –
62 | CCCOc1ccc(N2C(=O)CC(N(Cc3ccc(S(N)(=O)=O)cc3)C(=O)CC)C2=O)cc1 (stereo not drawn) | inconclusive [inhibitor, single point] | –
63 | OCCN1CCN(CC/C=C2/c3ccccc3Sc3ccc(C(F)(F)F)cc32)CC1 | inconclusive [inhibitor, partial curve] | –
64 | COc1ccc([C@]23Cc4ccccc4C(O2)c2c(cc(C)n(Cc4ccccc4)c2=O)O3)cc1 | inconclusive [inhibitor, partial curve] | –
65 | COc1ccccc1N1C(=O)c2cccc3c(N(C)CCO)ccc(c23)C1=O | inconclusive [inhibitor, full curve, poor fit] | –
66 | COc1ccc(/C=C/C(=O)Nc2ccccc2Cl)cc1S(=O)(=O)N1CCOCC1 | – | inactive: -1.18%
67 | COc1cccc(OCc2cc(C(=O)N3C[C@H]4C[C@@H](C3)c3cccc(=O)n3C4)no2)c1 | inconclusive [inhibitor, partial curve] | –
68 | Cc1ccc(Nc2nnc(SCC(=O)c3ccc(Br)s3)s2)c(C)c1 | – | inactive: 0.821%
